# Assay results reported in PMC4336329 (PLoS ONE, 2015).
# Among all 310,000 compounds or so, about 14,000 (4.5%) showed an effect of 50% or more. Effects have a minus sign here. The list shows a part of the results.
# Molecular target: human ether-à-go-go-related gene (hERG) potassium channel (human, UniProt Q12809)
# Test: primary screen, population patch clamp on CHO cells stably expressing hERG
# 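Also: peak tail current of the secondary pulse compared with the same well before compound.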
# Chain of human ether-à-go-go-related gene (hERG) potassium channel (Q12809 whole entry, looked up): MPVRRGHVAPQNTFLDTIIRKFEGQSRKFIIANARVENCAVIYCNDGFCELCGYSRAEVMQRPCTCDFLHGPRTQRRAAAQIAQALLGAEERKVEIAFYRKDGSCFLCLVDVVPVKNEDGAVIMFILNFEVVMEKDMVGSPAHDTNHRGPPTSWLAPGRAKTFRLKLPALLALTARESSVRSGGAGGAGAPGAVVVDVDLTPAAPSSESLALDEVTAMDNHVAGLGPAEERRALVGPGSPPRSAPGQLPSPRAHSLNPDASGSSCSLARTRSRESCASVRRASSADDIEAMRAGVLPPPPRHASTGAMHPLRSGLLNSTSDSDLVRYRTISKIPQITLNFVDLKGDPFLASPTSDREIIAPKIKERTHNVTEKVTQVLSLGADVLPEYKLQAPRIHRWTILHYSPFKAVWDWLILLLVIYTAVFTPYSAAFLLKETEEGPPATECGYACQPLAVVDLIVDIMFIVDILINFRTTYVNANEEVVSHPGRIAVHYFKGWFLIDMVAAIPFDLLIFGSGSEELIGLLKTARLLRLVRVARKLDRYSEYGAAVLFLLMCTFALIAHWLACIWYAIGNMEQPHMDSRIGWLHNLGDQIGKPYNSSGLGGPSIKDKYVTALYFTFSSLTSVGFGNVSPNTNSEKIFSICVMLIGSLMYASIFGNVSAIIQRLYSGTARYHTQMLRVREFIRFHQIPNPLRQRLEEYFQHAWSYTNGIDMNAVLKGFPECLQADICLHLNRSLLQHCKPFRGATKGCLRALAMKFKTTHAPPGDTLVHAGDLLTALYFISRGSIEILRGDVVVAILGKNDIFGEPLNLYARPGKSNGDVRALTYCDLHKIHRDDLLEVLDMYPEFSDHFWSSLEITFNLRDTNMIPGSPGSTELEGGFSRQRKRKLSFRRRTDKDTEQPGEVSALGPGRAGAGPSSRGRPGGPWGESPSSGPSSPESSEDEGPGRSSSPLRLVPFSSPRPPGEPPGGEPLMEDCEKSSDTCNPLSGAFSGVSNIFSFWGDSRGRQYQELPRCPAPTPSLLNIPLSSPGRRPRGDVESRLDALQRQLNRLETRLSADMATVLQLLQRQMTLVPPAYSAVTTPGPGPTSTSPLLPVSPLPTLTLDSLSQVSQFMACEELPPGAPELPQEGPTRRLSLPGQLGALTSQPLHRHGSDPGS
row,SMILES,"hERG current change (%, negative = inhibition) at 10uM [%]"
1,CCOC(=O)C(C(=O)OCC)C(C[N+](=O)[O-])c1ccccc1 (centres unmarked),27.1
2,Cc1ccc2c(c1)sc(=NC(=O)C1CC1)n2C,-4.01
3,CCCCn1c(SCc2nc3ccccc3s2)nc2ccccc2c1=O,-54.7
4,CCCC(C)C(=O)Nc1nc(C)c(-c2csc(Nc3ccccc3OC)n2)s1 (centres unmarked),14.5
5,Cc1cc(NC(=O)CCSc2ccccc2)no1,14.1
6,COn1c(SC(C)C)nc2ccccc2c1=O,-6.14
7,O=C(NC1CC(=O)N(c2cccc(F)c2)C1)N1CCN(C(=O)c2ccco2)CC1 (centres unmarked),-26.1
8,Cc1ccc(S(=O)(=O)N/N=C/c2cc(Br)c(C)o2)cc1,4.02
9,Cc1ccc(CNS(=O)(=O)c2cc3c4c(c2)C(C)C(=O)N4CCC3)cc1 (centres unmarked),-20.3
10,CCCCCCCCCC(=O)N/N=C(\C)c1cccnc1,9.29
11,CN(C(=S)NC(=O)C1CC1)c1ccc(O)cc1,-16.5
12,O=C(NCCN1CCOCC1)c1c(F)c(F)c(F)c(F)c1F,15.8
13,COc1ccccc1CNC(=O)C1CCCC1,21.6
14,c1ccc(CCNCCCOc2cccc3ccccc23)cc1,-26.5
15,CS(=O)(=O)Nc1ccc(-c2cc(/C=C3\SC(N)=NC3=O)c[nH]c2=O)cc1,11.9
16,Cc1ccc(NC(=O)CCn2c(=O)[nH]c3ccsc3c2=O)cc1F,-1.38
17,CC1CCCC(C)N1C(=O)COC(=O)C12CC3CC(CC(Cl)(C3)C1)C2 (centres unmarked),-18.2
18,Cc1ccccc1C(=O)Nc1ccccc1Sc1ccccc1,3.32
19,Cc1nc(-c2ccc(C#N)cc2)cs1,-0.948
20,Cc1c(C(=O)NCC2CCCO2)oc2ccc(S(=O)(=O)N3CCCCC3)cc12 (centres unmarked),1.19
21,CCOc1ccc(OCCn2c(S(=O)(=O)O)nc3c(N)ncnc32)cc1,12.9
22,COc1ccc(NC(=O)c2ccc(N3CCOCC3)nc2)cc1,3.94
23,O=C(CN1C(=O)S/C(=C\C=C\c2ccccc2)C1=O)NC1CCS(=O)(=O)C1 (centres unmarked),-1.57

row,SMILES,"hERG current change (%, negative = inhibition) at 10uM [%]"
1,CC(Sc1ncnc2sc(-c3ccccc3)cc12)C(=O)NCC1CCCO1 (centres unmarked),-33.1
2,COc1ccc(N2CCN(C(=O)COC(=O)c3c(-c4ccccc4)noc3C)CC2)cc1,-26.9
3,COC(=O)c1sc2nc(CN3CCN(c4cccc(C(F)(F)F)c4)CC3)[nH]c(=O)c2c1C,11.6
4,CCOC(=O)c1c(/N=C/C2=C(O)CCCC2=O)sc2c1CCCC2,16
5,CCc1nc(C)cn1S(=O)(=O)c1cc([N+](=O)[O-])ccc1Cl,16.4
6,CC1CCN(C(=S)c2ccc([N+](=O)[O-])cc2)CC1,-18.1
7,O=C(NC(=S)N1CCN(c2ccccc2)CC1)c1c(F)cccc1F,47
8,CN(CC(=O)Nc1ccc(N2CCOCC2)cc1)C(=O)CCc1cc(C(C)(C)C)c(O)c(C(C)(C)C)c1,-31.1
9,Cc1cc(C)cc(C(=O)O/N=C(\N)c2ccc(Br)cc2)c1,4.49
10,O=C(CSc1nnc(-c2ccc(S(=O)(=O)N3CCCC3)cc2)o1)NCc1ccccc1,4.47
11,CS(=O)(=O)c1ccc(C(=O)Nc2ccc(N3CCOCC3)cc2)c(Cl)c1,4.97
12,CC(C)OCCCNc1ncnc2c1[nH]c1ccccc12,-9.31
13,COc1ccc(CNC(=O)c2cccc(C)c2[N+](=O)[O-])cc1,26.4
14,O=C(C1CCCO1)N1CCN(C(=S)Nc2ccccc2C(F)(F)F)CC1 (centres unmarked),1.49
15,O=C1CN(CC(=O)Nc2ccc(Cl)cc2)CCN1,-4.87
16,Cn1ccnc1Sc1ccc(/C=N/NC(=O)c2ccccc2[N+](=O)[O-])cc1[N+](=O)[O-],-36.7
17,CSCCC(NC(=O)c1ccccc1Cl)C(=O)N1CCN(C(c2ccccc2)c2ccccc2)CC1 (centres unmarked),-1.92
18,COc1ccc(CCNC(=O)CSc2ccc3nnc(CCNC(=O)c4ccccc4)n3n2)cc1OC,6.1
19,O=[N+]([O-])c1cccc(-c2cc3cccc[n+]3cc2-c2cccc([N+](=O)[O-])c2)c1.[Cl-],-24.8
20,COc1ccc(Cl)cc1C(=O)Nc1ccccc1N1CCN(C(=O)C(C)C)CC1,-74
21,Cn1cnc2c1c(=O)n(Cc1cccc(Cl)c1)c(=O)n2C,10.2
22,COc1ccc(S(=O)(=O)N2CCC(C(=O)Nc3cccc(Cl)c3)CC2)cc1OC,-18.9
23,COc1cccc(-c2nc(N3CCCCC3C)c3ccccc3n2)c1O (centres unmarked),17.8

row,SMILES,"hERG current change (%, negative = inhibition) at 10uM [%]"
1,COc1ccccc1OCCCCCNCCO,2.82
2,CCOc1ccc(CN2CCN(Cc3cnc(N4CCOCC4)s3)CC2CCO)cc1 (centres unmarked),-39.8
3,CCC1CCCCN1C(=O)CSc1nc2c(cnn2-c2ccc(C)cc2)c(=O)[nH]1 (centres unmarked),20.1
4,Cc1cc(Nc2ccc(F)cc2Cl)n2ncnc2n1,-3.01
5,C=C(C)c1cccc(C(C)(C)NC(=O)N2CCN(C/C=C/c3ccccc3)CC2)c1,-62.9
6,COc1ccccc1NS(=O)(=O)c1ccc(C(N)=O)cc1,9.94
7,O=C(CSc1ccc(-c2ccc(F)cc2)nn1)N1CCCCC1,-21
8,O=C1N=C2SCCN2/C1=C\c1ccc(Cl)cc1,-15.5
9,Cc1ccc(-c2cc(Cc3cccs3)c(=O)[nH]n2)cc1,15.4
10,Cc1cccc(NC(=S)NCc2ccc(F)cc2)c1,12.1
11,COc1ccc(N(CC(=O)NC2CCCCC2)C(=O)CCCC(=O)Nc2ccccn2)cc1,-65.9
12,C1CCCN(CCCCN2CCCCCC2)CC1.Cl,-2.21
13,COc1cc2c(cc1OC)CN(C(=O)COc1ccccc1C#N)CC2,15.4
14,COc1cccc(C2(c3cccc(OC)c3)CC2C(=O)Nc2ccc(F)cc2)c1 (centres unmarked),6.06
15,CCC1CSC(Nc2ccc(C(=O)/C=C/c3cccc(C)c3)cc2)=N1 (centres unmarked),14.4
16,CCCCCCCCOc1ccc(C(=O)O)cc1,13.3
17,COc1ccc(C(=O)CSc2nnc3ccccn23)cc1OC,17.1
18,O=C(c1cccs1)N1CCN(c2nc3ccc([N+](=O)[O-])cc3s2)CC1,-7.47
19,CCOc1ccccc1N1CC(C(=O)N2CCc3ccccc32)CC1=O (centres unmarked),-5.81
20,CCOC(=O)C1C(=O)N(C)C2(C)CC1c1ccccc1O2 (centres unmarked),11.5
21,O=C1C(O)=C(O)C(=O)c2ccccc21,0.0396
22,CC1(C)OC(=O)C2(Cc3ccccc3N3CCCCC32)C(=O)O1 (centres unmarked),-8.47
23,O=C(NCCC1CCCCN1S(=O)(=O)c1ccc(F)cc1)C(=O)NCc1ccccn1 (centres unmarked),-11.9

row,SMILES,"hERG current change (%, negative = inhibition) at 10uM [%]"
1,Nc1c(C(=O)c2ccccc2)oc2ccc([N+](=O)[O-])cc12,-0.269
2,CCN(CC)Cc1cc(C(C)=O)ccc1OCC(C)C,-31.5
3,Cc1ccc(NC(=O)c2cc(CC(C)C)nc3ccccc23)cc1,11
4,CCOC(=O)c1c(NC(=O)C2CC=CCC2C(=O)O)sc(C)c1CC (centres unmarked),2.37
5,CC(C)NC(=O)c1ccccc1NC(=O)CN(c1ccc2c(c1)OCO2)S(C)(=O)=O,1.97
6,Cc1noc(C)c1COc1ccc(C(=O)OCC(=O)N2CC(=O)Nc3ccccc32)cc1,4.54
7,O=C(Cn1ncc2c3ccccc3n(Cc3ccccc3F)c2c1=O)NC1CC1,10.5
8,Cc1ccccc1NC(=O)N1CCC(C(=O)c2ccc(F)cc2)CC1,-16.3
9,CN(C)C=O.O=C1CN(C(=O)CN2C(=O)NC3(CCCCC3)C2=O)c2ccccc2N1,35.7
10,COC(=O)[C@H]1C[C@@H]1[C@H](NC(=O)c1cccnc1)c1ccccc1,3.74
11,CCCCN(CC)CCCNC(=O)c1cc2cc3ccc(OC)cc3nc2o1,-64.5
12,COc1ccc(CCC(=O)Nc2ccc(-c3noc(-c4ccc(OC)c(OC)c4)n3)cc2)cc1,19.9
13,CS(=O)(=O)N(CC(=O)NCc1ccncc1)c1ccc(Cl)c(Cl)c1,-17.8
14,CC1(C)NC(=O)N(c2ccccc2Cl)C1(C)NO (centres unmarked),-5.5
15,CC(C)CCNC(=O)CN(Cc1ccccc1)C(=O)CCC(=O)Nc1ccccn1,-19.7
16,Cc1ccc(-c2nnc(-c3cccc(NC(=O)c4cccs4)c3)o2)cc1,-13.9
17,CCOC(=O)N1CCN(C(=O)CNC(=O)c2ccc(Cl)cc2Cl)CC1,-20
18,COc1ccc(CN2CCN(CC(O)Cn3c4ccccc4c4ccccc43)CC2)cc1 (centres unmarked),-75.2
19,COc1ccc2c(c1)CC[C@@H]1[C@@H]2CC[C@]2(C)C(=O)CC[C@@H]12,7.61
20,Cc1ccc(C(=O)N/C(=C\c2ccccc2)C(=O)NCC2CCCO2)cc1 (centres unmarked),-24.3
